The campaign covered roughly 270,000 compounds. About 5,800 (2.1%) were called active. The inconclusive results got no clear call from the source; some entries with a clear call stand among them for comparison. Calls come from the whole dose curve; as a rule, active = well fitted inhibition curve with a large enough effect; inconclusive = small, poorly fitted or top-dose-only effect; inactive = flat fitted curve, though single readings scatter. A potency beside an inconclusive call is a rough fit, not a confirmed value.
target: Microtubule-associated protein tau (Homo sapiens) (UniProt P10636); assay: qHTS for Inhibitors of Tau Fibril Formation, Thioflavin T Binding; settings: recombinant tau K18 P301L, heparin-induced fibrillization, ThT fluorescence; series mostly up to 57.4 µM; activity, negative = inhibition: at the top concentration; note: nearly all actives have a fitted effect of over 55% in size
Sequence of UniProt P10636 (P10636 whole entry, looked up): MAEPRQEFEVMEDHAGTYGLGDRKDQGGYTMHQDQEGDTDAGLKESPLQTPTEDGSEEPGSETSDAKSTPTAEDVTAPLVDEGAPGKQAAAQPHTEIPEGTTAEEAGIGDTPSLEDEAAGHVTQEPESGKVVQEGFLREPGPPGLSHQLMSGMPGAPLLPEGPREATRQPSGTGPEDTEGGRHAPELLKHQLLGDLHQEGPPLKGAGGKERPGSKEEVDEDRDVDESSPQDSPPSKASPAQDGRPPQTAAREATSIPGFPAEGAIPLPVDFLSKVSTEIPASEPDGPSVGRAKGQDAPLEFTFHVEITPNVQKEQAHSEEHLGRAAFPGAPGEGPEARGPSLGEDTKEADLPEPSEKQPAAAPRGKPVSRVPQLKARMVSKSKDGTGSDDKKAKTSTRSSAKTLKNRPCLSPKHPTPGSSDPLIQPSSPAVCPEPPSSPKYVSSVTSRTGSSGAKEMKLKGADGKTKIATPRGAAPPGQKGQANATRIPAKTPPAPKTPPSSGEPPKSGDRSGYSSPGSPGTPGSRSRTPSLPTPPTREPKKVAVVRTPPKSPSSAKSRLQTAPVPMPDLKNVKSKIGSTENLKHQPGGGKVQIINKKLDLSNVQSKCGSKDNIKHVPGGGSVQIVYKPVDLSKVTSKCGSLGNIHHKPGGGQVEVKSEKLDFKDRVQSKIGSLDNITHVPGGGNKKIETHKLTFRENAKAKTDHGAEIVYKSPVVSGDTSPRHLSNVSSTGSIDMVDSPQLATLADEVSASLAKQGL
How it was run: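 Using a mix of unlabeled (15 uM) and Alexa 594-labeled (0.24 uM) tau K18 P301L, heparin-triggered fibrillization over 6 hr at 37 C was scored by ThT fluorescence.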
% is set by controls: 0 for no effect and ±100 for the full control effect; potency is the fitted concentration of half-maximal effect; tags give direction and shape of the fitted curve.

SMILES | activity, negative = inhibition | Potency
O=c1c2ccccc2cnn1Cc1n[nH]c(=S)n1-c1ccccc1Cl | inactive: -4.03% | –
CCOc1cc(C2c3c(oc4ccccc4c3=O)C(=O)N2Cc2ccccc2Cl)ccc1O (configuration not stated) | – | inconclusive: 35.5 µM [inhibitor, single point]
O=C(N/C=C/c1ccco1)Nc1cccc(Cl)c1 | – | inconclusive: 12.6 µM [inhibitor, partial curve]
COc1ccc2c(C)c(CCC(=O)NCc3ccc(OC)c(OC)c3)c(=O)oc2c1 | – | inconclusive: 44.7 µM [inhibitor, single point]
CCNc1ccc(Br)cc(C(=O)/C=C/c2c(Cl)cccc2Cl)c1=O | – | active: 12.6 µM
Cc1[nH]c(=O)[nH]c(=O)c1/C=N/NC(=O)[C@H](CC(C)C)NC(=O)OC(C)(C)C | inactive: -0.917% | –
Cc1ccc(-n2nnc(-c3cc4ccccc4n3C)n2)cc1 | – | inconclusive: 1 µM [inhibitor, single point]
O=C(Cn1c(=O)nc(-c2ccccc2)c2cc(Cl)ccc21)NCCCc1ccccc1 | – | inconclusive: 25.1 µM [inhibitor, partial curve]
Cc1cc(O)c(-c2cc(O)c(C)cc2O)cc1O | – | active: 7.94 µM
Cc1ccc(C(=O)NNC(=O)CSc2nc(N)cc(N)n2)cc1 | inactive: -10.9% | –
CCOC(=O)C1=C(CNCCc2ccc(Cl)cc2)NC(=O)NC1c1ccc2c(c1)OCO2 (configuration not stated) | – | inconclusive: 35.5 µM [inhibitor, partial curve]
O=C(NCC1CCCO1)c1cc(-c2ccco2)nc2ccccc12 (configuration not stated) | – | inconclusive: 39.8 µM [inhibitor, partial curve, poor fit]
O=C1c2ccccc2-c2nnc(-c3ccc(O)cc3)cc21 | – | active: 5.01 µM
CC1CCCC2(C1)NC(=S)N(c1ccccc1)N2 (configuration not stated) | – | inconclusive: 31.6 µM [inhibitor, single point]
COc1ccc(C2CC(=O)N(CC(=O)Nc3ccc(C(F)(F)F)cc3)c3ccccc3S2)cc1 (configuration not stated) | inactive: 0.0379% | –
COc1cc(NC(=O)c2cc3nc(-c4ccccc4)cc(-c4ccccc4)n3n2)c(OC)cc1Cl | inactive: -8.71% | –
COc1cc2c(cc1OC)C(c1ccc(F)cc1)N(c1ccc(F)cc1)C(=O)C2 (configuration not stated) | inactive: -13.5% | –
CN(C)CC(=O)Nc1cc(C(F)(F)F)ccc1Cl | inactive: -7.5% | –
C/C(Cn1nnc([N+](=O)[O-])n1)=N\NC(=O)c1ccccc1O | inactive: -12.3% | –
CCCn1c(-c2ccc(F)cc2)nc2c(N3CCCN(Cc4ccccc4)CC3)nc(C)nc21 | – | inconclusive: 31.6 µM [inhibitor, partial curve]
Cc1ccc(CNC(=O)CS(=O)Cc2nc(-c3cccs3)oc2C)cc1 (configuration not stated) | – | inconclusive: 31.6 µM [inhibitor, partial curve]
CC(=O)Nc1cccc(-c2nc3ccccc3c(=O)o2)c1 | inactive: -13.6% | –
CCn1nc(C)c(C(=O)Nc2cc(Oc3cc(C)cc(C)c3)cc([N+](=O)[O-])c2)c1C | – | inconclusive: 3.16 µM [inhibitor, partial curve]
COc1ccc(N2CCN(C(=O)CCCN3C(=O)c4cccc5cccc(c45)C3=O)CC2)cc1 | – | inconclusive: 3.98 µM [inhibitor, partial curve]

SMILES | activity, negative = inhibition | Potency
Cc1cccc(C)c1NC(=O)CN(C)S(=O)(=O)c1ccc2c(c1)n(C)c(=O)c(=O)n2C | inactive: 2.14% | –
O=C1CCCC(O)=C1N=Nc1c(Cl)cc(Cl)cc1Cl | – | inconclusive: 17.8 µM [inhibitor, partial curve]
COC(=O)c1ccc(C(=O)OC)c(NC(=O)c2c(-c3ccccc3)c(-c3ccccc3)nn(C)c2=O)c1 | inactive: -4.19% | –
Cc1ccc2c(c1)nc(SCC(O)c1ccc(Br)cc1)n2C (configuration not stated) | – | inconclusive: 28.2 µM [inhibitor, partial curve, poor fit]
Cc1nn(-c2ccccc2)c(Cl)c1/C=N\NC(=O)c1cncc(Br)c1 | – | inconclusive: 2.82 µM [inhibitor, full curve]
CCCCc1ccc(Nc2ncnc3c2cnn3-c2ccc(C)cc2)cc1 | inactive: 1.81% | –
Cc1ccc(S(=O)Cc2nc(-c3ccc(C(=O)NC(C)c4ccccc4)cc3)oc2C)cc1 (configuration not stated) | – | inconclusive: 2.82 µM [activator, partial curve, poor fit]
CCCCCCn1c(=O)[nH]c2nc3cc(N)ccc3nc2c1=O | – | active: 28.2 µM
Cc1ccc(C2C3=C(CCCC3=O)N=C3c4ccccc4C(=O)C32)cc1 (configuration not stated) | – | inconclusive: 11.2 µM [inhibitor, partial curve]
CC12CCC(c3c(CO)nn(-c4ccccc4)c31)C2(C)C (configuration not stated) | inactive: -5.49% | –
CN(c1ccccc1)c1ccc(/C=N/N2CCOCC2)cc1 | – | inconclusive: 15.8 µM [inhibitor, partial curve]
O=C(N/N=C/c1ccc[nH]1)c1cc(-c2cccs2)nc2ccccc12 | – | inconclusive: 15.8 µM [inhibitor, single point]
COc1ccc(C(=O)C[n+]2cn(C(F)F)c3ccccc32)c(F)c1 | – | inconclusive: 35.5 µM [inhibitor, partial curve, poor fit]
CC1(C)CC(=O)c2c(oc3cc(O)c(O)cc23)C1 | – | active: 28.2 µM
CN(C)c1ccc(CNC(=O)C(Cc2ccccc2)NS(=O)(=O)c2ccc3c(c2)oc(=O)n3C)cc1 (configuration not stated) | inactive: 0.49% | –
CCC(C)(C)c1ccc(OCCCC[n+]2cccc(C)c2C)c(C(C)(C)CC)c1 | – | inconclusive: 31.6 µM [inhibitor, single point]
CCn1c(SCC(=O)Nc2ccc(N(C)C)cc2)nnc1-c1cccc(C)c1 | – | inconclusive: 22.4 µM [inhibitor, partial curve]
CCCCOc1ccc(-c2ncc([N+](=O)[O-])cn2)cc1 | – | inconclusive: 1.12 µM [inhibitor, full curve]
CCCCCCCCc1ccc(-c2ccc(C(=O)O)cc2)cc1 | – | inconclusive: 7.08 µM [inhibitor, full curve]
Cc1ccc(-c2cc(C(=O)N3CCN(S(=O)(=O)c4ccc(Br)s4)CC3)[nH]n2)c(C)c1 | inactive: -2.76% | –
CC(=O)c1ccc(NC(=O)CSc2ccc3nc(-c4ccccc4)cn3n2)cc1 | inactive: 7.22% | –
S=c1nc(-c2sccc2OCc2ccc(Cl)cc2Cl)[nH][nH]1 | – | inconclusive: 15.8 µM [inhibitor, partial curve]
N#C/C(=N\Nc1cccc([N+](=O)[O-])c1)C(=O)c1ccc(Br)cc1 | – | active: 10 µM
CCCCOC(=O)c1ccc(NC(=O)/C(C#N)=C/c2ccc(-c3ccccc3)o2)cc1 | inactive: -15.9% | –

SMILES | activity, negative = inhibition | Potency
CCOc1ccc(N2C(=O)CC(SC(=NC)Nc3cccc(OC)c3)C2=O)cc1 (configuration not stated) | inactive: 1.4% | –
COc1ccc(C[C@H]2CN3C(=NC[C@H]3Cc3ccccc3)N2CCNC(=O)c2ccc(C)c(Br)c2)cc1 | inactive: -16.9% | –
COc1cccc(/C=N/NC(=O)c2cnccn2)c1O | – | inconclusive: 0.631 µM [inhibitor, full curve, poor fit]
O=C(/C=C/c1ccc(Br)cc1)NC(=S)N1CCOCC1 | inactive: -26.6% | –
O=C(NCc1ccc2c(c1)OCO2)c1nn(-c2ccccc2)c(=O)c2ccccc12 | inactive: -14.7% | –
CCOC(=O)C1=C(C)N(c2ccccc2)C(=O)/C1=C\c1ccco1 | – | inconclusive: 22.4 µM [inhibitor, partial curve]
Cc1nn(CCC#N)c(N)c1C1(O)C(=O)Nc2c(Cl)cc(Cl)cc21 (configuration not stated) | – | inconclusive: 28.2 µM [inhibitor, single point]
Cc1nc(-c2ccccc2)sc1C1(C)CC(c2ccc([N+](=O)[O-])cc2)=NO1 (configuration not stated) | – | inconclusive: 0.794 µM [inhibitor, full curve, poor fit]
COc1ccc2sc(N3C(=O)C4CC=C(C)CC4C3=O)nc2c1 (configuration not stated) | – | inconclusive: 44.7 µM [inhibitor, partial curve]
CC1=C/C(=N\N=C2\NC(=O)C(CC(=O)Nc3ccccc3)S2)CC(C)(C)C1 (configuration not stated) | – | inconclusive: 35.5 µM [inhibitor, single point]
Cc1ccc(Nc2ccc(NCc3ccccc3)nn2)cc1C | – | inconclusive: 15.8 µM [inhibitor, partial curve]
C[N+](C)(C)CCCCCC[N+](C)(C)C | – | inactive
COc1cccc(Nc2nc(-c3sc(NC(=O)c4ccco4)nc3C)cs2)c1 | – | active: 10 µM
Nc1c(C(=O)Nc2ccc(Cl)cc2F)sc2nc(-c3cccs3)ccc12 | – | inconclusive: 0.794 µM [inhibitor, full curve]
Cc1ccc(NC(=O)C2CC(=O)N/C(=N/NC(=O)c3ccc(C)cc3)S2)cc1 (configuration not stated) | – | inconclusive: 28.2 µM [inhibitor, single point]
COc1ccc(-c2nc(SCC(=O)N3CCC(C)CC3)n[nH]2)cc1 | inactive: -14.6% | –
Cn1c(=O)c([N+](=O)[O-])c(-n2ccnc2)c2ccccc21 | – | inconclusive: 35.5 µM [inhibitor, single point]
Cc1noc(C)c1COC(=O)c1ccc2c(c1)S(=O)(=O)c1ccccc1C2=O | inactive: -13.4% | –
COc1ccc(-c2cn3nc(N4CCC(C(=O)Nc5cc(Cl)ccc5OC)CC4)sc3n2)cc1 | – | inconclusive: 3.55 µM [inhibitor, full curve]
CCc1nnc(SCc2nc(-c3ccccc3)oc2C)c2cc3sccc3n12 | inactive: -16.4% | –
CCC(C)(C)C1CCc2c(sc(NC(=O)c3ccccc3C(=O)O)c2C#N)C1 (configuration not stated) | – | inconclusive: 5.62 µM [inhibitor, partial curve]
CCN(CC)CCCNC(=O)C1c2cc(OC)c(OC)cc2C(=O)N(C)C1c1cccnc1 (configuration not stated) | inactive: -0.0656% | –
C=CCn1c(SC(C)C(=O)NCCC2=CCCCC2)nc2ccccc2c1=O (configuration not stated) | – | inconclusive: 44.7 µM [inhibitor, partial curve, poor fit]
C[C@]12CC[C@@H]3c4ccc(O)cc4CC[C@H]3[C@@H]1CC[C@@H]2OC(=O)CCC(=O)O | – | inconclusive: 10 µM [inhibitor, partial curve]

Source: PubChem BioAssay AID1460 (National Center for Advancing Translational Sciences (NCATS), 2008)
